This note sets out measurements from the supplement of paper PMC3334620.

Whole data set: some 33,000 sequences, median “E-score (-0.5 to 0.5)” near -0.013, cut for the highest 2% near 0.3. The list shows a part of the results.

The target in this experiment is T1, Msn1 (UniProt P22148).
T1 sequence: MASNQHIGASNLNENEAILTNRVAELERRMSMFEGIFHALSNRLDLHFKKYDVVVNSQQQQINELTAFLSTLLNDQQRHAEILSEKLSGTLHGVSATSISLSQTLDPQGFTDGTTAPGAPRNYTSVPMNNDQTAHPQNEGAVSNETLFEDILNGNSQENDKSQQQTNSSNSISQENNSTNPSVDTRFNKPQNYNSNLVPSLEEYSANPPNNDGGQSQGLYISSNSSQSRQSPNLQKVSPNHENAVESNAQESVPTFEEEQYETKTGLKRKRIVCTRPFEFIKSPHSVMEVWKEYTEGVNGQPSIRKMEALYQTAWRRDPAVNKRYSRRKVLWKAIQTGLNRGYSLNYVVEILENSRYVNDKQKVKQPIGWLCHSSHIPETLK
The experiment can be described thus: PBM E-score (8-mer binding enrichment) (E-score (-0.5 to 0.5)); higher = stronger / more preferred TF binding; most listed sequences are background and not binding sites. Particulars: protein concentration: 200 nM; construct: GST-full length. In short, it runs like this: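 Masliner-normalised scans of fluorescent anti-GST signal were the basis for scoring. That signal came from GST-tagged yeast transcription factors applied at about 100-200 nM to double-stranded universal all-10-mer Agilent arrays on fresh or once-stripped slides. Each ungapped eight-base word, pooled with its reverse complement, received an E-score from the Universal PBM Analysis Suite.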
For the sequence CCCAAGGG, the “PBM E-score” value is -0.22.

With ACCGGGAC, the “PBM E-score” value is 0.126.

As for GTGACGAA, the “PBM E-score” value was -0.0509. As to AGGAGTAC, the “PBM E-score” value was -0.197.

For the sequence CACCATTC, the “PBM E-score” value was -0.122. On to ACCAATGA, for which the “PBM E-score” value was -0.0181.

Regarding AATTTTAT, the “PBM E-score” value stood at 0.225. The result for ATTCGTTG reads 0.116. In the case of GATGTAAC, the “PBM E-score” value was -0.0718. The result for GATGGGAC reads 0.14; that for ATGGTCTG, -0.0695. The figure for CATTCGAA is 0.0621; for GCTTAATA it is -0.0678; for ATGCCGTC it is -0.105. AAACGGGC: the “PBM E-score” value is 0.082. Consider TCACTCAA, for which the “PBM E-score” value was -0.148. As to ATATTTCG, the “PBM E-score” value came out at 0.221. The figure for AAGTATGC is -0.0157.

For GCTTACCC, the “PBM E-score” value is -0.191.

With AGCTAAGC, the “PBM E-score” value is -0.277.

CAACTCCG: the “PBM E-score” value was -0.0564. For the sequence ATCCGCAA, the “PBM E-score” value is -0.00729. With AACGTAGA, the “PBM E-score” value was -0.0161.

In the case of CTCTTGCC, the “PBM E-score” value is -0.0644. On to AACACTCC, for which the “PBM E-score” value is -0.0357.

With AAAGCTCC, the “PBM E-score” value was -0.127. Regarding CTCCGACC, the “PBM E-score” value was -0.0669. The figure for AACGGGTG is 0.0124. The figure for CCCCGGCG is -0.35; for ACCCGCTG it is -0.0703. For CTTATAAG, the “PBM E-score” value amounted to 0.102. With GAATGAAA, the “PBM E-score” value is 0.124. On to ACTAGATG, for which the “PBM E-score” value is 0.00237.

For CGGTGTCA, the “PBM E-score” value came to 0.0418. Turning to CTTTTCGC, the “PBM E-score” value was 0.0851.

For TCAAAACA, the “PBM E-score” value stood at 0.177. The result for TCCGACAA reads 0.372.

CCTGCCAC: the “PBM E-score” value was -0.298.

For TATAAGAA, the “PBM E-score” value worked out at 0.027. As for CGGGTGAG, the “PBM E-score” value was -0.247. The figure for ATGCTCTA is -0.131. AATTTGTC: the “PBM E-score” value was 0.488. The result for ATTGTGCA reads 0.0409. As to CTCTCAAG, the “PBM E-score” value is -0.0939. In the case of GAAGTCAC, the “PBM E-score” value was -0.0737. Regarding AGCTCTTC, the “PBM E-score” value was -0.0398. On to ATCGACTG, for which the “PBM E-score” value is -0.115.

On to CTCCCCCC, for which the “PBM E-score” value is -0.407. Take TATTTACA: the “PBM E-score” value was found to be 0.018. In the case of ATTCGGAG, the “PBM E-score” value is 0.0972. The figure for CCTTGTAG is -0.167; for GGGCCCGA it is -0.189. As to CATAATGA, the “PBM E-score” value is -0.0532.

Take CGATGGTC: the “PBM E-score” value was -0.0443. Turning to CAGCAACA, the “PBM E-score” value was 0.124. As for AGGCACCC, the “PBM E-score” value is -0.241. CCGGGCAC: the “PBM E-score” value was determined as 0.0492. For the sequence ATCAATCG, the “PBM E-score” value was -0.00559.

For the sequence ACATATTG, the “PBM E-score” value is 0.321.

Regarding AAGGCAGC, the “PBM E-score” value is -0.0841. The result for CCAGAAAG reads 0.024. As to CACCCGGG, the “PBM E-score” value is -0.134.

CAAGAGTG: the “PBM E-score” value is -0.104. Regarding CGTCAACA, the “PBM E-score” value is -0.0583. Consider AGGTGATA, for which the “PBM E-score” value was -0.184. In the case of AGCTTAGA, the “PBM E-score” value was 0.0964. For the sequence TACGAAGA, the “PBM E-score” value came out at 0.0399. As for AGCTTACT, the “PBM E-score” value was found to be 0.0048. For the sequence GGAAGGCC, the “PBM E-score” value is -0.281. The result for GTGCAAAC reads -0.063. For the sequence CATATGCA, the “PBM E-score” value amounted to 0.129. The result for CCTGCTTC reads -0.172. With GTGTAGCA, the “PBM E-score” value was -0.175. In the case of ACCCAAAG, the “PBM E-score” value was -0.00541.

For the sequence CCTGTCCG, the “PBM E-score” value is 0.117. On to CGGGAGCC, for which the “PBM E-score” value is -0.233. On to ATCTCGGC, for which the “PBM E-score” value is -0.0545. For the sequence GCCCATTA, the “PBM E-score” value was -0.203. The figure for ACAATAAG is 0.0668; for CAAAAAAC it is 0.204.

Consider GACAAACC, for which the “PBM E-score” value is 0.445. In the case of ACTTGGGG, the “PBM E-score” value was -0.205.

With GCAACTGC, the “PBM E-score” value stood at 0.0155. The figure for CCAGAGAA is -0.0537. With AATGCCCA, the “PBM E-score” value was -0.118. The figure for TACAGAGA is -0.0201; for CGTTCCAG it is -0.136.

As for CGCCAGCC, the “PBM E-score” value was -0.336. In the case of ACACTGGC, the “PBM E-score” value came out at 0.0665. For the sequence GGGAAGCA, the “PBM E-score” value is -0.234. The figure for CGGCGGAC is -0.0145; for CTTCTTGC it is -0.0305; for ACGCCCCA it is -0.14. For CGCGGCCG, the “PBM E-score” value is -0.143. Regarding GTGCTTCA, the “PBM E-score” value turned out to be 0.0242. Take AGTATAGA: the “PBM E-score” value stood at 0.0581. As for AATGTACG, the “PBM E-score” value stood at 0.274.

On to CCTTCTAC, for which the “PBM E-score” value is -0.216.

Turning to AAGACAAT, the “PBM E-score” value is 0.409. As for ACAGTTCC, the “PBM E-score” value was found to be 0.0691. In the case of CGAGAACA, the “PBM E-score” value was determined as 0.0345.

Regarding GATATGCC, the “PBM E-score” value was -0.0135. Turning to CCGAGCAA, the “PBM E-score” value is -0.183. In the case of CAGATAGA, the “PBM E-score” value is 0.0362. In the case of CCGCACCA, the “PBM E-score” value is -0.103. With CCGTGGTC, the “PBM E-score” value is -0.245.

With GGAAGCCA, the “PBM E-score” value was -0.291.

For CGTAGTGC, the “PBM E-score” value is -0.118. Regarding CCGAAACG, the “PBM E-score” value is 0.0121.
